# Reference: the supplement of paper PMC3334620
# In all, about 33,000 sequences were measured (“E-score (-0.5 to 0.5)”: median about -0.016, highest 2% from about 0.31 on). The list shows a part of the results.
# Molecular target: Cst6 (UniProt P40535)
# Test: PBM E-score (8-mer binding enrichment) (E-score (-0.5 to 0.5)); higher = stronger / more preferred TF binding; most listed sequences are background and not binding sites
# Conditions: protein concentration: 200 nM; construct: GST-DNA-binding domain
# Procedure, shortened: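 Using PURExpress in vitro transcription/translation, GST-tagged yeast transcription factors were made in full-length or DNA-binding-domain form. These were applied at about 100-200 nM to double-stranded universal all-10-mer Agilent arrays, and bound protein was detected with fluorescent anti-GST. Scans were normalised with masliner before the Universal PBM Analysis Suite assigned E-scores to ungapped eight-base words pooled with their reverse complements.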
row,Sequence,PBM E-score
1,ATGTAAAT,0.309
2,AGGGGCCC,-0.101
3,GCACAAGC,-0.0487
4,CTAATTAG,0.132
5,AGAGCTAC,0.0197
6,ATTCAGAA,0.113
7,CGGCACTC,0.0818
8,CCGAAGGA,-0.11
9,CACGATCC,-0.0466
10,ATTCTGTC,0.0249
11,ACATAGCT,-0.263
12,GTCTCTGA,0.0019
13,CGCTTTAA,0.0171
14,AATGTCAC,0.308
15,GAGAGACC,-0.238
16,ACGTCCGC,0.0176
17,ACTCGAAA,0.0948
18,TACATCTA,0.0515
19,ACAACCGT,-0.0371
20,ACAACCTA,-0.0481
21,ACATGGCC,0.00199
22,TTGACCAA,0.0011
23,ACGAGTCG,-0.0969
24,CGAAGGAG,-0.0144
25,CGTAACAA,0.295

row,Sequence,PBM E-score
1,ATAAACTA,0.196
2,GACGCGGC,0.318
3,CAAGCGGC,0.283
4,ACTTGACA,0.0826
5,CTCTTTAC,0.00324
6,CGACGTTA,0.23
7,ACTACGGC,0.0668
8,TCACTTAA,0.109
9,ACCATTAG,-0.0421
10,GTAATACA,0.234
11,ATATTGAC,0.13
12,AAGCCCCT,-0.335
13,GTTGTCAA,0.0505
14,GGAATACC,-0.28
15,AGAAAACC,-0.0485
16,GCTATTAA,0.159
17,CCCGGTCA,-0.271
18,GCACATGA,0.018
19,GTTCTGGA,-0.0183
20,AATGGATG,0.0722
21,ACAGGTAA,0.0752
22,ACACAACA,0.0731
23,AATGTTTC,-0.0286
24,TCCCGAAA,0.045
25,AATCGCCA,-0.0227

row,Sequence,PBM E-score
1,AGTGGTAT,0.022
2,TCAAGGAA,0.102
3,AAGAGTGC,-0.126
4,ACAAGTAT,0.131
5,AATTTGGT,0.114
6,ATGCTCCG,-0.185
7,ACCACCCA,0.0252
8,AGACTTAC,-0.0105
9,AAGTAAGC,0.0657
10,CCGAGGTC,-0.309
11,TCTCCTCA,-0.162
12,GGAGTCTA,-0.28
13,ATCCTTAA,0.00761
14,GAGTCCGA,-0.0585
15,GCCTAAGA,-0.104
16,GTGACTAA,0.179
17,ACCCACGA,-0.0914
18,GAGGCTGA,-0.0653
19,ATATCTCA,0.188
20,GGCGAGTA,-0.126
21,TACGAGTA,0.109
22,CTCGTCCC,-0.0813
23,CTCCAGCC,-0.141
24,ATTATTTG,0.259
25,ACCTTTCG,-0.124

row,Sequence,PBM E-score
1,CTTCCCAA,-0.102
2,GATATAAC,0.16
3,GTGGGGGA,-0.302
4,ATCACCCG,-0.00679
5,CGATTGGC,-0.00755
6,TAGCGGCA,0.0681
7,GGGAGGAA,-0.147
8,AAACCAGC,-0.0742
9,GAAGTGGA,-0.16
10,CGATTCCG,-0.0634
11,CTCGTAGA,-0.221
12,AGCTTACA,0.179
13,AAACTATC,0.0274
14,ACATCATC,0.462
15,CTGGGTGC,-0.186
16,GGCCAATA,-0.0143
17,ACCGGCGA,-0.0605
18,CTCTATAA,0.153
19,ATAAGCAC,0.117
20,CATATAGG,-0.0567
21,TACTGACA,0.0617
22,ACTGTGAT,0.0871
23,GTACGCCA,-0.0921
24,CTGACTAC,0.0278
25,ACTAAACG,0.0597

row,Sequence,PBM E-score
1,GAGAGCTA,-0.0455
2,AACGACGA,0.0645
3,GAAGATGA,0.0745
4,ACCGTACA,0.0188
5,ATGAATGA,0.244
6,GGAAAGCC,-0.0191
7,CCCATGAG,-0.15
8,GTCCCTTA,-0.0674
9,ATTGGCCA,-0.114
10,TGGTGCAA,-0.0475
11,GGAGTATA,0.0353
12,GACCTCCA,-0.089
13,TCCGGCGA,-0.0619
14,CCGGACAA,-0.147
15,AACGCGGC,0.261
16,CGGTCTTC,-0.0638
17,GTGATCGA,0.0857
18,AACAAGGG,-0.057
19,ATATTTCA,0.155
20,CTCCCAAA,-0.0435
21,AAGATCTG,0.0483
22,CGCATCAA,0.141
23,AAAATGGT,0.154
24,AAACAAAC,0.154
25,GGCTCATA,-0.038

row,Sequence,PBM E-score
1,CATTCCGA,0.0913
2,CTGATAGC,-0.126
3,CAAATCAG,0.122
4,GGGGCCCA,-0.204
5,TACGACGA,0.0201
6,ACCCCAAA,-0.0546
7,CCTAAATA,0.0813
8,AGCACCTC,-0.2
9,ACTCAACG,0.0233
10,ACTTAAGG,0.0959
11,ACGGCGCT,0.251
12,ATAGGTGG,-0.146
13,ATTGACCC,-0.0592
14,TATCGGGA,-0.165
15,AGTTAGTG,0.0727
16,AAATAGAT,0.272
17,TGCCAACA,-0.0662
18,AAACCGTG,0.11
19,ACTTTTGG,0.0364
20,TATCCATA,0.077
21,CCTGCAGC,-0.1
22,CCGTTACA,0.0733
23,GCCGCATA,0.276
24,TTATAGAA,0.162
25,CGCCACAG,-0.0862

row,Sequence,PBM E-score
1,AGGCCCAA,-0.0687
2,CCGAAATA,0.262
3,CCTGTTTC,-0.0927
4,ATTGAAAG,0.0394
5,AGCAGTCA,-0.188
6,TGTAGGAA,-0.0644
7,ATGTCCTA,-0.0924
8,ACATCCCT,-0.0808
9,AAATACCG,0.02
10,CACGTCCC,-0.216
11,AGGTTGAA,0.0673
12,AAGAGCTG,-0.123
13,CTCAATTC,0.072
14,CTCACGAG,-0.148
15,AGAGGTTC,-0.11
16,ATCATGCA,0.109
17,GGTGTTAA,-0.0066
18,GCCGGTCA,-0.0239
19,GCGAAACA,-0.0193
20,ACCATTGC,0.0812
21,CGAGTTAC,0.174
22,CCTCTTGA,0.041
